From patent US20250243260A1 (ALPINE IMMUNE SCIENCES, published 2025)

Molecular target: T1, human CTLA-4 (human, UniProt P16410 36-223)
T1 construct: whole, on cells; also called CHO/CTLA-4 cells
Test: flow cytometry on CHO/CTLA-4 cells
Experimental: Binding affinity to CD28 was determined using primary human T cells which endogenously express CD28. Binding to PD-L1 was determined using SCC152 cells transduced with human PD-L1. Binding to CTLA-4 was measured using Chinese hamster ovary (CHO) cells stably transduced to express human CTLA-4.
For staining and analysis by flow cytometry, 75,000 human T cells, SCC152/PD-L1 cells, or CHO/CTLA-4 cells were plated in 96-well round-bottom plates. Cells were spun down and resuspended in staining buffer (PBS (phosphate buffered saline), 1% BSA (bovine serum albumin), 1 mM EDTA, and 0.1% sodium azide) for 20 minutes to block non-specific binding. Afterwards, cells were centrifuged, stain buffer aspirated, and then resuspended in 50 μL of a 1:5 serial dilution of each CD80-Fc candidate variant starting at 100 nM ending at 0.8 nM. Primary staining was performed on ice for 60 minutes, before washing cells in […] staining buffer three times. PE-conjugated anti-human Fc (Jackson ImmunoResearch, USA) was diluted 1:250 in 50 μL staining buffer and added to cells and incubated another 30 minutes at 4° C. Cells were washed two times in 150 μL stain buffer and then fixed in 2% formaldehyde/PBS for 5 minutes at room temperature. Samples were analyzed CytoFLEX LX flow cytometer (Beckman Coulter, USA). Median Fluorescence Intensity (MFI) was calculated for each cell type using the CytExpert software from Beckman Coulter.

T1 sequence (P16410 36-223): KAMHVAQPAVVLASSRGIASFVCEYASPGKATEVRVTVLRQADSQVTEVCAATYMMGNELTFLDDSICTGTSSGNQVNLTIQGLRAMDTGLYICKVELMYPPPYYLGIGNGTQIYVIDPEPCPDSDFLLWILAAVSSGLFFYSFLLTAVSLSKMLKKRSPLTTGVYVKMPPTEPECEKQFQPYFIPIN

Row | Binder | MFI at 0.8 nM [MFI] | MFI at 4 nM [MFI] | MFI at 20 nM [MFI] | MFI at 100 nM [MFI] | fold change vs WT CD80 at 20 nM [fold]
1 | CD80-218 variant CD80 IgV-Fc (V11W, T28Y, D46V, V68T, R73T, Y87N) (Fc fusion, also called CD80_218-Fc) VIHVTKEVKEWATLSCGHNVSVEELAQYRIYWQKEKKMVLTMMSGVMNIWPEYKNRTIFDITNNLSITILALTPSDEGTYECVVLKNEKDAFKREHLAEVTLSVKADGSGGGGS[omitted - human IgG4 Fc with S228P (EU numbers)] | 150000 | 365000 | 547000 | 573000 | 0.66
2 | CD80_169 variant CD80 IgV-Fc (E10G, E35G, D46E, M47V, V68M) (Fc fusion, also called CD80_169-Fc) VIHVTKEVKGVATLSCGHNVSVEELAQTRIYWQKGKKMVLTMMSGEVNIWPEYKNRTIFDITNNLSIMILALRPSDEGTYECVVLKYEKDAFKREHLAEVTLSVKADGSGGGGS[omitted - human IgG4 Fc with S228P (EU numbers)] | 284000 | 563000 | 591000 | 621000 | 0.71
3 | CD80_166 variant CD80 IgV-Fc (V11Y, M47V, L85E) (Fc fusion, also called CD80_166-Fc) VIHVTKEVKEYATLSCGHNVSVEELAQTRIYWQKEKKMVLTMMSGDVNIWPEYKNRTIFDITNNLSIVILALRPSDEGTYECVVEKYEKDAFKREHLAEVTLSVKADGSGGGGS[omitted - human IgG4 Fc with S228P (EU numbers)] | 305 | 312 | 333 |  | 0
4 | CD80_165 variant CD80 IgV-Fc (V11Y, M47V, F59S, L85E) (Fc fusion, also called CD80_165-Fc) VIHVTKEVKEYATLSCGHNVSVEELAQTRIYWQKEKKMVLTMMSGDVNIWPEYKNRTISDITNNLSIVILALRPSDEGTYECVVEKYEKDAFKREHLAEVTLSVKADGSGGGGS[omitted - human IgG4 Fc with S228P (EU numbers)] | 3680 | 10800 | 12500 | 87700 | 0.02
5 | CD80-219 variant CD80 IgV-Fc (E10S, V11Y, M42R, A71V) (Fc fusion, also called CD80_219-Fc) VIHVTKEVKSYATLSCGHNVSVEELAQTRIYWQKEKKMVLTRMSGDMNIWPEYKNRTIFDITNNLSIVILVLRPSDEGTYECVVLKYEKDAFKREHLAEVTLSVKADGSGGGGS[omitted - human IgG4 Fc with S228P (EU numbers)] | 73300 | 226000 | 471000 | 567000 | 0.57
6 | CD80_170 variant CD80 IgV-Fc (K9N, E10G, E35G, D46E, M47V, V68M) (Fc fusion, also called CD80_170-Fc) VIHVTKEVNGVATLSCGHNVSVEELAQTRIYWQKGKKMVLTMMSGEVNIWPEYKNRTIFDITNNLSIMILALRPSDEGTYECVVLKYEKDAFKREHLAEVTLSVKADGSGGGGS[omitted - human IgG4 Fc with S228P (EU numbers)] | 252000 | 505000 | 555000 | 597000 | 0.67
7 | CD80_167 variant CD80 IgV-Fc (V11Y, M42I, M47V, A71G) (Fc fusion, also called CD80_167-Fc) VIHVTKEVKEYATLSCGHNVSVEELAQTRIYWQKEKKMVLTIMSGDVNIWPEYKNRTIFDITNNLSIVILGLRPSDEGTYECVVLKYEKDAFKREHLAEVTLSVKADGSGGGGS[omitted - human IgG4 Fc with S228P (EU numbers)] | 892 | 2480 | 1340 | 35300 | 0
8 | CD80-220 variant CD80 IgV-Fc (H18F, T28V, M47L, V68S) (Fc fusion, also called CD80_220-Fc) VIHVTKEVKEVATLSCGFNVSVEELAQVRIYWQKEKKMVLTMMSGDLNIWPEYKNRTIFDITNNLSISILALRPSDEGTYECVVLKYEKDAFKREHLAEVTLSVKADGSGGGGS[omitted - human IgG4 Fc with S228P (EU numbers)] | 232000 | 468000 | 542000 | 591000 | 0.65

Further lines, results first:

Row | MFI at 0.8 nM [MFI] | MFI at 4 nM [MFI] | MFI at 20 nM [MFI] | MFI at 100 nM [MFI] | fold change vs WT CD80 at 20 nM [fold] | Binder
9 | 310000 | 452000 | 512000 | 534000 | 0.62 | CD80_180 variant CD80 IgV-Fc (E10G, V11W, T28Y, M47L) (Fc fusion, also called CD80_180-Fc) VIHVTKEVKGWATLSCGHNVSVEELAQYRIYWQKEKKMVLTMMSGDLNIWPEYKNRTIFDITNNLSIVILALRPSDEGTYECVVLKYEKDAFKREHLAEVTLSVKADGSGGGGS[omitted - human IgG4 Fc with S228P (EU numbers)]
10 | 320000 | 435000 | 481000 | 497000 | 0.58 | CD80_182 variant CD80 IgV-Fc (E10G, V11W, E35G, M47L, A71G, Y87R) (Fc fusion, also called CD80_182-Fc) VIHVTKEVKGWATLSCGHNVSVEELAQTRIYWQKGKKMVLTMMSGDLNIWPEYKNRTIFDITNNLSIVILGLRPSDEGTYECVVLKREKDAFKREHLAEVTLSVKADGSGGGGS[omitted - human IgG4 Fc with S228P (EU numbers)]
11 | 45700 | 136000 | 365000 | 547000 | 0.44 | CD80_181 variant CD80 IgV-Fc (K9S, E10R, V11Y, M47L, A71G) (Fc fusion, also called CD80_181-Fc) VIHVTKEVSRYATLSCGHNVSVEELAQTRIYWQKEKKMVLTMMSGDLNIWPEYKNRTIFDITNNLSIVILGLRPSDEGTYECVVLKYEKDAFKREHLAEVTLSVKADGSGGGGS[omitted - human IgG4 Fc with S228P (EU numbers)]
12 | 256000 | 491000 | 573000 | 567000 | 0.69 | CD80_172 variant CD80 IgV-Fc (K9R, E10S, V11Y, M42L, F59M, V68M, L85E) (Fc fusion, also called CD80_172-Fc) VIHVTKEVRSYATLSCGHNVSVEELAQTRIYWQKEKKMVLTLMSGDMNIWPEYKNRTIMDITNNLSIMILALRPSDEGTYECVVEKYEKDAFKREHLAEVTLSVKADGSGGGGS[omitted - human IgG4 Fc with S228P (EU numbers)]
13 | 660 | 1620 | 6680 | 25300 | 0.01 | CD80_179 variant CD80 IgV-Fc (H18F, M42G, F59Y, V68N) (Fc fusion, also called CD80_179-Fc) VIHVTKEVKEVATLSCGFNVSVEELAQTRIYWQKEKKMVLTGMSGDMNIWPEYKNRTIYDITNNLSINILALRPSDEGTYECVVLKYEKDAFKREHLAEVTLSVKADGSGGGGS[omitted - human IgG4 Fc with S228P (EU numbers)]
14 | 495 | 956 | 3030 | 10800 | 0 | CD80_178 variant CD80 IgV-Fc (V11Y, T28Y, L85E, Y87I) (Fc fusion, also called CD80_178-Fc) VIHVTKEVKEYATLSCGHNVSVEELAQYRIYWQKEKKMVLTMMSGDMNIWPEYKNRTIFDITNNLSIVILALRPSDEGTYECVVEKIEKDAFKREHLAEVTLSVKADGSGGGGS[omitted - human IgG4 Fc with S228P (EU numbers)]
15 | 374000 | 557000 | 565000 | 559000 | 0.68 | CD80_171 variant CD80 IgV-Fc (E7S, H18I, V20L, A26K, M47L, A71N) (Fc fusion, also called CD80_171-Fc) VIHVTKSVKEVATLSCGINLSVEELKQTRIYWQKEKKMVLTMMSGDLNIWPEYKNRTIFDITNNLSIVILNLRPSDEGTYECVVLKYEKDAFKREHLAEVTLSVKADGSGGGGS[omitted - human IgG4 Fc with S228P (EU numbers)]
16 | 23700 | 75100 | 214000 | 403000 | 0.26 | CD80_176 variant CD80 IgV-Fc (E10R, H18Y, A26G, E35D, V68L, L85E) (Fc fusion, also called CD80_176-Fc) VIHVTKEVKRVATLSCGYNVSVEELGQTRIYWQKDKKMVLTMMSGDMNIWPEYKNRTIFDITNNLSILILALRPSDEGTYECVVEKYEKDAFKREHLAEVTLSVKADGSGGGGS[omitted - human IgG4 Fc with S228P (EU numbers)]
17 | 340000 | 529000 | 542000 |  | 0.65 | CD80_175 variant CD80 IgV-Fc (E10S, V11F, T28Y, M47L, T62S) (Fc fusion, also called CD80_175-Fc) VIHVTKEVKSFATLSCGHNVSVEELAQYRIYWQKEKKMVLTMMSGDLNIWPEYKNRTIFDISNNLSIVILALRPSDEGTYECVVLKYEKDAFKREHLAEVTLSVKADGSGGGGS[omitted - human IgG4 Fc with S228P (EU numbers)]
18 | 209000 | 388000 | 505000 | 521000 | 0.61 | CD80_173 variant CD80 IgV-Fc (V11Y, T28Y, M47L, L85E) (Fc fusion, also called CD80_173-Fc) VIHVTKEVKEYATLSCGHNVSVEELAQYRIYWQKEKKMVLTMMSGDLNIWPEYKNRTIFDITNNLSIVILALRPSDEGTYECVVEKYEKDAFKREHLAEVTLSVKADGSGGGGS[omitted - human IgG4 Fc with S228P (EU numbers)]
19 | 2960 | 11100 | 36900 | 127000 | 0.04 | CD80_177 variant CD80 IgV-Fc (E10G, V11W, V22S, T28P, A71G, E81K, Y87R) (Fc fusion, also called CD80_177-Fc) VIHVTKEVKGWATLSCGHNVSSEELAQPRIYWQKEKKMVLTMMSGDMNIWPEYKNRTIFDITNNLSIVILGLRPSDEGTYKCVVLKREKDAFKREHLAEVTLSVKADGSGGGGS[omitted - human IgG4 Fc with S228P (EU numbers)]
